Results on 27 compounds are retold here after the supplement of paper PMC6089552.

The subject of this assay is A673/TR/shEF. As to the kind of experiment: cell viability (LOESS-normalised, relative to median of negative controls) (log2 ratio); higher = more viable cells (less compound effect), active = hit call of the paper (over 3 MAD below the median). The settings on record: treatment time: 72 h. In a few lines: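 Viability of A673/TR/shEF Ewing sarcoma cells was determined by CellTiter-Glo luminescence. The cells, at 1,500 per well in 384-well plates, were grown with or without doxycycline from 24 h before compound addition to switch on EWS-FLI1 shRNA knockdown, then exposed for three days to library compounds at two or more concentrations or to DMSO controls. Signals were LOESS-corrected plate by plate, normalised to the negative-control median and log2-transformed.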

Setting [1] is: 0.25 µM, library screen: screen1, EWS-FLI1 expression: high (no doxycycline).
[2] abbreviates: 0.25 µM, library screen: screen1, EWS-FLI1 expression: low (doxycycline-induced shRNA knockdown).
Where [3] appears, read: 2.5 µM, library screen: screen1, EWS-FLI1 expression: high (no doxycycline).
The mark [4] stands for this setting: 2.5 µM, library screen: screen1, EWS-FLI1 expression: low (doxycycline-induced shRNA knockdown).
Where [5] appears, read: 0.25 µM, library screen: screen2, EWS-FLI1 expression: high (no doxycycline).
Setting [6] is: 0.25 µM, library screen: screen2, EWS-FLI1 expression: low (doxycycline-induced shRNA knockdown).
The mark [7] stands for this setting: 2.5 µM, library screen: screen2, EWS-FLI1 expression: high (no doxycycline).
[8] abbreviates: 2.5 µM, library screen: screen2, EWS-FLI1 expression: low (doxycycline-induced shRNA knockdown).
The mark [9] stands for this setting: 25 µM, library screen: screen2, EWS-FLI1 expression: high (no doxycycline).
Where [10] appears, read: 25 µM, library screen: screen2, EWS-FLI1 expression: low (doxycycline-induced shRNA knockdown).
[11] abbreviates: 0.025 µM, library screen: screen2, EWS-FLI1 expression: high (no doxycycline).
[12] abbreviates: 0.025 µM, library screen: screen2, EWS-FLI1 expression: low (doxycycline-induced shRNA knockdown).

The campaign covered roughly 3,200 compounds. About 300 (9.4%) showed activity. Only a part is listed here, and it is no random draw.

As to `Oc1c(Cl)c(Cl)c(Cl)c(Cl)c1Cl`, the “cell viability (log2)” value under setting [1] was inactive: 0.0795, the “cell viability (log2)” value under setting [2] is inactive: 0.0349, the “cell viability (log2)” value under setting [3] is inactive: 0.101 and the “cell viability (log2)” value under setting [4] is inactive: 0.135.

As for `O=C1c2ccccc2C(=O)c2ccccc21`, the “cell viability (log2)” value runs as follows: under setting [1], inactive: 0.0481; under setting [2], inactive: 0.0868; under setting [3], inactive: 0.203; under setting [4], inactive: 0.0785.

`CCc1cccc(C)c1N(C(=O)CCl)C(C)COC` (centres undefined): the “cell viability (log2)” value is inactive: 0.0561 under setting [1], inactive: 0.0711 under setting [2], inactive: 0.0898 under setting [3] and inactive: 0.0634 under setting [4].

Turning to `COc1ccc2c(c1)[nH]c1c(C)nccc12`, the “cell viability (log2)” value under setting [1] was inactive: 0.0682, the “cell viability (log2)” value under setting [2] was inactive: 0.0261, the “cell viability (log2)” value under setting [3] was inactive: 0.183 and the “cell viability (log2)” value under setting [4] is inactive: 0.154.

`CC(C)N(C(=O)SCC(Cl)=C(Cl)Cl)C(C)C`: the “cell viability (log2)” value was inactive: 0.0806 under setting [1], inactive: 0.0889 under setting [2], inactive: -0.00898 under setting [3] and inactive: 0.0996 under setting [4].

Consider `COc1ccc(C[C@H]2NC[C@H](O)[C@H]2OC(C)=O)cc1`, for which the “cell viability (log2)” value under setting [1] is active: -0.49, the “cell viability (log2)” value under setting [2] is active: -0.228, the “cell viability (log2)” value under setting [3] was active: -2.24 and the “cell viability (log2)” value under setting [4] was active: -1.04.

Regarding `CCCN(CCC)CCc1ccc(O)c(O)c1`, the “cell viability (log2)” value by setting is: under setting [5], inactive: 0.238; under setting [6], inactive: 0.0631; under setting [7], inactive: 0.171; under setting [8], inactive: 0.138.

For `NCCc1c[nH]c2ccc(O)cc12`, the “cell viability (log2)” value is, setting by setting: under setting [5], inactive: 0.151; under setting [6], inactive: 0.0973; under setting [7], inactive: 0.138; under setting [8], inactive: 0.11.

For the compound `COc1cc([C@@H]2c3cc4c(cc3[C@H](O)[C@H]3COC(=O)[C@H]23)OCO4)cc(OC)c1OC`, the “cell viability (log2)” value is active: -3.56 under setting [1]; active: -1.09 under setting [2]; active: -4.23 under setting [3]; active: -0.986 under setting [4]; active: -1.33 under setting [7]; active: -0.175 under setting [8]. Moreover, the “cell viability (log2)” value was active: -2.9 under setting [9] and active: -0.496 under setting [10].

For the compound `CO[C@H]1[C@H](O)[C@H](O[C@H]2CC[C@@]3(C)[C@H](CC[C@@H]4[C@@H]3CC[C@]3(C)[C@@H](C5=CC(=O)OC5)CC[C@]43O)C2)O[C@@H](C)[C@@H]1O`, the “cell viability (log2)” value is, setting by setting: under setting [3], active: -4.02; under setting [4], active: -4.27.

Regarding `CNC(C)C(O)c1ccccc1` (centres undefined), the “cell viability (log2)” value under setting [1] is inactive: 0.0913, the “cell viability (log2)” value under setting [2] is inactive: -0.0933, the “cell viability (log2)” value under setting [3] is inactive: 0.0276 and the “cell viability (log2)” value under setting [4] was inactive: 0.0547.

As for `CC[C@H]1CN2CCc3cc(OC)c(OC)cc3[C@@H]2C[C@@H]1C[C@H]1NCCc2cc(OC)c(OC)cc21`, the “cell viability (log2)” value under setting [11] was inactive: 0.187; the “cell viability (log2)” value under setting [12] is inactive: 0.0478; the “cell viability (log2)” value under setting [1] was inactive: 0.11; the “cell viability (log2)” value under setting [2] was inactive: 0.116; the “cell viability (log2)” value under setting [5] was active: -0.895; the “cell viability (log2)” value under setting [6] was active: -0.442. For the same compound, the “cell viability (log2)” value is active: -1.08 under setting [3]; active: -0.152 under setting [4]; active: -2.19 under setting [7]; active: -1.21 under setting [8]; active: -2.91 under setting [9]; active: -1.84 under setting [10].

In the case of `CS(=N)(=O)CC[C@H](N)C(=O)O` (some centres undefined), the “cell viability (log2)” value under setting [5] was inactive: 0.123, the “cell viability (log2)” value under setting [6] is inactive: 0.148, the “cell viability (log2)” value under setting [7] is inactive: 0.135 and the “cell viability (log2)” value under setting [8] is inactive: 0.0831.

On to `COc1cc2c(cc1-c1cc3cc4ccoc4cc3oc1=O)OCO2`, for which the “cell viability (log2)” value runs as follows: under setting [1], inactive: 0.0215; under setting [2], inactive: -0.011; under setting [3], inactive: 0.0285; under setting [4], inactive: 0.107.

For `C#C[C@]1(O)C=C[C@H]2[C@@H]3CCC4=CC(=O)CC[C@@H]4[C@H]3CC[C@@]21CC`, the “cell viability (log2)” value (0.103 µM, library screen: screen3, EWS-FLI1 expression: high (no doxycycline)) was inactive: -0.0375; the “cell viability (log2)” value (0.103 µM, library screen: screen3, EWS-FLI1 expression: low (doxycycline-induced shRNA knockdown)) was inactive: 0.0598; the “cell viability (log2)” value (0.308 µM, library screen: screen3, EWS-FLI1 expression: high (no doxycycline)) is inactive: -0.000217; the “cell viability (log2)” value (0.308 µM, library screen: screen3, EWS-FLI1 expression: low (doxycycline-induced shRNA knockdown)) was inactive: 0.0405; the “cell viability (log2)” value (0.926 µM, library screen: screen3, EWS-FLI1 expression: high (no doxycycline)) was inactive: -0.0178; the “cell viability (log2)” value (0.926 µM, library screen: screen3, EWS-FLI1 expression: low (doxycycline-induced shRNA knockdown)) was inactive: 0.0411. Further, the “cell viability (log2)” value was inactive: 0.00995 (2.8 µM, library screen: screen3, EWS-FLI1 expression: high (no doxycycline)); inactive: 0.0219 (2.8 µM, library screen: screen3, EWS-FLI1 expression: low (doxycycline-induced shRNA knockdown)); inactive: 0.0185 (8.3 µM, library screen: screen3, EWS-FLI1 expression: high (no doxycycline)); inactive: 0.0303 (8.3 µM, library screen: screen3, EWS-FLI1 expression: low (doxycycline-induced shRNA knockdown)); inactive: -0.0179 (25 µM, library screen: screen3, EWS-FLI1 expression: high (no doxycycline)); inactive: 0.101 (25 µM, library screen: screen3, EWS-FLI1 expression: low (doxycycline-induced shRNA knockdown)).

With `CC1(C(=O)O)C2CCC(O2)C1(C)C(=O)O` (centres undefined), the “cell viability (log2)” value runs as follows: (0.025 µM, library screen: screen1, EWS-FLI1 expression: high (no doxycycline)) inactive: 0.144; (0.025 µM, library screen: screen1, EWS-FLI1 expression: low (doxycycline-induced shRNA knockdown)) inactive: -0.0798; under setting [1], inactive: 0.0748; under setting [2], inactive: -0.099; under setting [5], inactive: 0.137; under setting [6], inactive: 0.0724. In addition, the “cell viability (log2)” value under setting [3] was inactive: -0.00382; the “cell viability (log2)” value under setting [4] is inactive: -0.0912; the “cell viability (log2)” value under setting [7] is inactive: 0.0145; the “cell viability (log2)” value under setting [8] was inactive: 0.0152; the “cell viability (log2)” value (25 µM, library screen: screen1, EWS-FLI1 expression: high (no doxycycline)) was active: -0.932; the “cell viability (log2)” value (25 µM, library screen: screen1, EWS-FLI1 expression: low (doxycycline-induced shRNA knockdown)) is active: -0.597.

Consider `CC(C)(C)NCC(O)c1ccccc1Cl` (centres undefined), for which the “cell viability (log2)” value by setting is: under setting [1], inactive: 0.163; under setting [2], inactive: 0.0576; under setting [5], inactive: 0.223; under setting [6], inactive: 0.0914; under setting [3], inactive: 0.0916; under setting [4], inactive: 0.0437. In addition, the “cell viability (log2)” value is, setting by setting: under setting [7], inactive: 0.0908; under setting [8], inactive: 0.0575.

For the compound `COC(=O)/C=C(\C)OP(=O)(OC)OC`, the “cell viability (log2)” value reads like this: under setting [1], inactive: -0.00893; under setting [2], inactive: -0.0133; under setting [3], inactive: 0.034; under setting [4], inactive: 0.0603.

As for `O=C1NC(=O)C(=O)C(=O)N1`, the “cell viability (log2)” value runs as follows: under setting [1], inactive: 0.0702; under setting [2], inactive: 0.00675; under setting [3], inactive: 0.14; under setting [4], inactive: 0.0562.

Regarding `CC(C)c1ccc2c(c1O)CCC1C3=C(CCC21C)C(=O)OC3` (centres undefined), the “cell viability (log2)” value is inactive: 0.0257 under setting [1], inactive: 0.104 under setting [2], inactive: 0.151 under setting [3] and inactive: 0.343 under setting [4].

As to `CN(C)C(=S)SSC(=S)N(C)C`, the “cell viability (log2)” value by setting is: under setting [1], active: -2.91; under setting [2], active: -2.1; under setting [3], active: -2.99; under setting [4], active: -2.02.

As to `CO[C@]12C[C@@H](COC(=O)c3cncc(Br)c3)CN(C)[C@@H]1Cc1cn(C)c3cccc2c13`, the “cell viability (log2)” value by setting is: under setting [1], inactive: 0.137; under setting [2], inactive: -0.0115; under setting [3], inactive: 0.157; under setting [4], inactive: 0.125.

For the compound `C[C@H]1C(=O)O[C@@H]2CCN3CC=C(COC(=O)[C@](C)(O)[C@]1(C)O)[C@H]23`, the “cell viability (log2)” value reads like this: under setting [11], inactive: 0.0665; under setting [12], inactive: 0.0541; under setting [1], inactive: 0.00981; under setting [2], inactive: 0.0549; under setting [5], inactive: 0.122; under setting [6], inactive: 0.0363. Also, the “cell viability (log2)” value by setting is: under setting [3], inactive: 0.0901; under setting [4], inactive: 0.111; under setting [7], inactive: 0.0833; under setting [8], inactive: 0.0416; under setting [9], inactive: 0.0406; under setting [10], inactive: 0.0625.

On to `NCc1cc(=O)[nH]o1`, for which the “cell viability (log2)” value by setting is: under setting [5], inactive: 0.179; under setting [6], inactive: 0.0332; under setting [7], inactive: -0.00258; under setting [8], inactive: 0.109.

As to `CCCN(CCC)[C@@H]1CCc2cccc(O)c2C1`, the “cell viability (log2)” value is, setting by setting: under setting [5], inactive: 0.0735; under setting [6], inactive: 0.0396; under setting [7], inactive: 0.0488; under setting [8], inactive: 0.128.

In the case of `C[N+]12CCC(CC1)C(OC(=O)C(O)(c1ccccc1)c1ccccc1)C2` (centres undefined), the “cell viability (log2)” value runs as follows: under setting [1], inactive: 0.193; under setting [2], inactive: 0.204; under setting [3], inactive: 0.163; under setting [4], inactive: 0.21.

As for `CC(=O)OC1CC(OC2C(O)CC(OC3C(O)CC(OC4CCC5(C)C(CCC6C5CC(O)C5(C)C(C7=CC(=O)OC7)CCC65O)C4)OC3C)OC2C)OC(C)C1OC1OC(CO)C(O)C(O)C1O` (centres undefined), the “cell viability (log2)” value was active: -2.91 under setting [3] and active: -3.01 under setting [4].
